# Screen size: about 4,800 compounds; about 410 (8.5%) showed an effect of 50% or more. This is one part of the list.
# Tested on: Plasmodium falciparum
# Assay: Confirmatory screen in NF54 pLDH assay, in single point, at 2uM, 72h
# Type: functional, Erythrocyte
# Conditions: timepoint 72 hour
row,SMILES,% Inhibition [%]
1,COCc1cc(C(=O)N[C@H](c2ccccc2)C2CCOCC2)no1,8
2,O=C(Nc1ccc(N2CCOCC2)nc1)c1cccs1,-11
3,COc1ccc(COC(=O)c2cccnc2C)cn1,-12
4,CCOC(=O)n1c(=O)[nH]c2ccc(Br)cc21,-18
5,CNS(=O)(=O)CC(=O)Nc1cc(Br)c(F)cc1F,-14
6,Cc1ncsc1C(=O)Nc1cccc(S(=O)(=O)N2CCC(CO)CC2)c1,7
7,Cn1ncc2nnn(-c3ccccc3)c(=O)c21,1
8,Cc1nn(Cc2ccccc2)c2nc(C3CC3)cc(C(=O)N3CCOCC3)c12,1
9,Cc1cc(C)nc(OC(C(=O)O)C(OCc2ccccc2)(c2ccc(C(F)(F)F)cc2)c2cccc(C(F)(F)F)c2)n1 (stereo not given),2
10,CCn1c(=O)c(N2CCN(C(=O)Nc3cccc(C(F)(F)F)c3)CC2)nc2ccccc21,11
11,Cc1c(Nc2[nH]cnc3ncnc2-3)c(=O)n(-c2ccccc2)n1C,-24
12,CNc1nc(C)nc(O)c1Br,9
13,CC(C)Nc1cccc(CNC(=O)N2CCOC[C@@H]2C)c1,-14
14,COc1ccc(CNC(=O)Cn2c(=O)n(Cc3cccc(OC)c3)c(=O)c3sccc32)cc1,14
15,O=C(O)c1nccn1CNc1ccncc1,2
16,CC1(C)CC(=O)C(CC(=O)N2CCCCC2)(Cc2ccccc2)C(=O)C1,12
17,CCOC(=O)C(Nc1cccc(NC(C(=O)OCC)C(=O)OCC)c1)C(=O)OCC,-21
18,CNc1nc(-c2ccccc2)nnc1C(F)(F)F,11
19,CCN(C(=O)Cn1ncn2nc(-c3cccc4ccccc34)cc2c1=O)c1ccccc1,11
20,O=C(C[C@@]1(O)C(=O)N(Cc2ccc(Cl)cc2Cl)c2ccccc21)c1ccccn1,-4
21,CCn1nc(C)c(CN(C)C(=O)c2nn3cccnc3c2Cl)c1C,3
22,CCCc1noc([C@H](C)OC(=O)c2cc[nH]n2)n1,4

row,SMILES,% Inhibition [%]
1,CC1(C)C[C@@](CCNCc2ccc(Cl)cc2)(Cc2ccccc2Cl)CCO1,-16
2,O=C(O)CCCC(=O)NCCc1ccc(Cl)cc1,-19
3,Cc1ccc(OCc2cccc(-c3nc4c5cn[nH]c5ncn4n3)c2)c(C)c1,5
4,CC(C)(C)c1cc(C[C@H]2CNCC[C@H]2CC(=O)N2CCC(Cc3ccccc3)CC2)no1,24
5,CC(C)(C)C(=O)N1CCC(O)(CS(=O)(=O)Cc2ccc(Cl)cc2)CC1,7
6,COc1cccc(C2=NS(=O)(=O)N(C)C(C(=O)N3CCC(C(N)=O)CC3)=C2)c1,0
7,COc1cc(C(=O)N2CCN(c3ccccc3)CC2)cc2occc12,5
8,c1nc2nc[nH]c(NC3CCCCC3)c-2n1,7
9,Cc1n[nH]c(C)c1NC(=O)C1=NO[C@@H](CNC(=O)OC(C)(C)C)C1,13
10,COc1ccc(OC)c(NC(=O)Cn2cnc3nc(N4CCOCC4)ncc3c2=O)c1,15
11,CC1(C(=O)NC(C#N)c2cccc(Cl)c2)CC2CCC1O2 (stereo not given),0
12,Cc1cccc([C@@H](NC(=O)Nc2ncco2)C(F)(F)F)c1,-15
13,CCc1ccc(-c2cc3c(=O)n(CC(=O)N4CC(C)CC(C)C4)ncn3n2)cc1 (stereo not given),11
14,CCCCn1nnc(N(C(=O)c2cccc3c(Br)cccc23)C(=O)c2cccc3c(Br)cccc23)n1,0
15,COc1ccc(C(O)CN2CCC(c3ccccc3)C2)cc1F (stereo not given),9
16,Cc1ccc(OCCCOc2ccc(CO)nc2)cc1C,8
17,Cc1ccc2c(c1)C(NC(c1cccnc1)c1ncc[nH]1)CCC2 (stereo not given),2
18,O=C(C1CC1c1ccccc1)N1CCC(c2nc3ccccc3o2)CC1 (stereo not given),10
19,CC1=CC(=[N+](CCO)CCO)C=C/C1=C(\c1ccc(N(CCO)CCO)cc1C)c1ccccc1Cl,87
20,Cc1nc(N2CCC(C)CC2)ncc1-c1cc(=O)[nH]c(Nc2ccccc2)n1,-13
21,CCOC(=O)c1cn(CC)c2cc(NC3CCCCC3)c(F)cc2c1=O,69
22,O=C(N[C@H](c1ccccc1)C1CC1)c1cccnc1O,1

row,SMILES,% Inhibition [%]
1,CN(C)c1nc(N)nc(CN2CCOc3ccc(F)cc32)n1,13
2,CCc1nc(C)nc(N2CCN(C[C@H](O)COc3ccccc3C)CC2)c1Cc1cccc(C)c1,9
3,CC(C)CCn1nnnc1[C@]1(N(C)C)CCCN(C(=O)c2cccn2C)C1,-12
4,O=C(Nc1ccc(Cc2ccc(NC(=O)c3ccc(Br)cc3)c(O)c2)cc1O)c1ccc(Br)cc1,11
5,Cc1c(CN2CCc3ccccc32)cnn1C,10
6,C[C@@H](C(=O)Nc1cc(C(F)(F)F)c[nH]c1=O)n1cc(Cl)cn1,-18
7,CS(=O)(=O)N[C@H]1CCCN(c2ncc(-c3ccccc3)s2)C1,-16
8,O=C(NCC1CCCN(C(=O)C2CC3CCC2C3)C1)Nc1cccc(F)c1 (stereo not given),4
9,c1ncc(N2CCN3CCC[C@H]3C2)nc1OCC1CCCC1,-16
10,Cc1cc(C)cc(-n2c(=O)c3sccc3n(CC(=O)Nc3ccc(N(C)C)cc3)c2=O)c1,-16
11,Nn1c(-c2ccccc2)c(-c2ccccc2)c(-c2ccccc2)cc1=O,-19
12,O=C(Nc1ccc2c(c1)OCCO2)N1CCN(c2nc3cccnc3n(Cc3ccccc3)c2=O)CC1,-16
13,O=C(Nc1cn[nH]c1)C(=O)Nc1ccc(F)c(F)c1F,-8
14,O=C(Nc1n[nH]c(Cc2cccc(F)c2)n1)[C@@H]1CCCc2[nH]ncc21,6
15,COCc1cc2nn(CC(=O)Nc3ccc(F)c(F)c3)c(=O)n2c(-c2ccccc2)n1,-15
16,CCOC(=O)COc1cc(N)c(F)cc1Cl,-9
17,O=C(CNC(=O)OCc1ccccc1)Nc1ccc(F)cc1,-21
18,CCCC(=O)N1CCN(c2c(C)n(-c3ccccc3)c(=O)n(C)c2=O)CC1,11
19,Cc1cc(Br)ccc1N1CC[C@@H](C(=O)NC2CC2)C1=O,4
20,Cc1c(C(=O)NC2CC2)cc(-c2ccccc2)n1C,6
21,COC(=O)c1ccccc1NC(=O)[C@@H]1C(=O)N(c2ccc(Cl)cc2)N=C1C,8
